From paper PMC7754472
Results are given in words; binding and its absence hold for the method and conditions named. For some of these results: In cells and extracts the contact can be indirect. Some results given as binding are weak or reduced against the parent protein; the word gives no strength. For some of these results: Tags and fused reporters may be left off the sequences shown. Blank lines part the entries; values can stand above or below the binder they belong to.

Key:
[1] = target: T1, RPW8.1 fused to the Gal4 DNA-binding domain (BD) of pGBKT7 (Arabidopsis (accession Ms-0)) (UniProt Q9C5Z7); assay: two-hybrid; RPW8.1 or RPW8.2 on the Gal4 BD (pGBKT7) as bait, ACO proteins and fragments on the Gal4 AD (pGADT7) as prey; growth on SD/-Ade/-His/-Leu/-Trp with X-alpha-gal (40 ug/ml) and Aureobasidin A (200 ng/ml), photographed after 3 d
T1 sequence: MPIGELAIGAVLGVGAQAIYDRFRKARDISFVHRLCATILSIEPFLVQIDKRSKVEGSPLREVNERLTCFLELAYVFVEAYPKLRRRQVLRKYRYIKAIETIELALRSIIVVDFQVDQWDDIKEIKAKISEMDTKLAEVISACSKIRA

[2] = target: T2, ACO4_(38-175)-Flag (Arabidopsis) (UniProt Q06588); assay: co-IP; transient coexpression in N. benthamiana by agroinfiltration, leaves collected at 36 hpi; IP buffer with 25 mM Tris-HCl pH 7.5, 100 mM NaCl, 1 mM EDTA, 10 mM DTT, 10% glycerol, 0.5% triton; alpha-Flag agarose 2 h at 4 C; immunoblot with alpha-HA or alpha-Flag
T2 sequence: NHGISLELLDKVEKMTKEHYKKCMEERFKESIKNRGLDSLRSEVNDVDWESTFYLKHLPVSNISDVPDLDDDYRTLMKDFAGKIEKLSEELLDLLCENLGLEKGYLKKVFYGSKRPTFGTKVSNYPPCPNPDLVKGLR

ACO4-Flag (Arabidopsis) = ACO4-Flag (Arabidopsis) (UniProt Q06588); assay: as above
[3] = target: RPW8.1-HA (Arabidopsis (accession Ms-0)) (UniProt Q9C5Z7); assay: as above
[4] = target: T3, RPW8.2 fused to the Gal4 DNA-binding domain (BD) of pGBKT7 (Arabidopsis (accession Ms-0)) (UniProt Q9C5Z6); assay: two-hybrid; RPW8.1 or RPW8.2 on the Gal4 BD (pGBKT7) as bait, ACO proteins and fragments on the Gal4 AD (pGADT7) as prey; growth on SD/-Ade/-His/-Leu/-Trp with X-alpha-gal (40 ug/ml) and Aureobasidin A (200 ng/ml), photographed after 3 d
T3 sequence: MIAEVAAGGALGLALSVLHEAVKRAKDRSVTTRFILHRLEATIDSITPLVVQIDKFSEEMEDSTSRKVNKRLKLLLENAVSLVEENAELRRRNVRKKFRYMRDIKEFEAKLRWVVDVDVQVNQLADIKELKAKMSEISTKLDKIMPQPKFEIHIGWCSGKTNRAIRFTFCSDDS

[5] = target: T4, YN-RPW8.1 (Arabidopsis (accession Ms-0)) (UniProt Q9C5Z7); assay: split reporter; BiFC: YN- and YC-tagged proteins coexpressed in N. benthamiana leaves; YFP fluorescence by confocal microscopy 2 d after infiltration
T4 sequence: T1 sequence

[6] = target: T5, RPW8.1-YC (Arabidopsis (accession Ms-0)) (UniProt Q9C5Z7); assay: as above
T5 sequence: T1 sequence

B1: ACO1 in the GAL4 activation domain (AD) vector (enzyme, UniProt Q9ZUN4 1-310)
chain: MVLIKEREMEIPVIDFAELDGEKRSKTMSLLDHACDKWGFFMVDNHGIDKELMEKVKKMINSHYEEHLKEKFYQSEMVKALSEGKTSDADWESSFFISHKPTSNICQIPNISEELSKTMDEYVCQLHKFAERLSKLMCENLGLDQEDIMNAFSGPKGPAFGTKVAKYPECPRPELMRGLREHTDAGGIILLLQDDQVPGLEFFKDGKWVPIPPSKNNTIFVNTGDQLEILSNGRYKSVVHRVMTVKHGSRLSIATFYNPAGDAIISPAPKLLYPSGYRFQDYLKLYSTTKFGDKGPRLETMKKMGNADSA
binding [1]: no binding

B3: A4T2 (ACO4 aa 255-323), Y2H prey (domain or fragment, UniProt Q06588 255-323)
chain: GSDSVIFPAPELIGKEAEKEKKENYPRFVFEDYMKLYSAVKFQAKEPRFEAMKAMETTVANNVGPLATA
binding [1]: no binding

B4: A4T1 (ACO4 aa 153-254), Y2H prey (domain or fragment, UniProt Q06588 153-254)
chain: PTFGTKVSNYPPCPNPDLVKGLRAHTDAGGIILLFQDDKVSGLQLLKDGEWVDVPPVKHSIVVNLGDQLEVITNGKYKSVEHRVLSQTDGEGRMSIASFYNP
binding [1]: no binding

B5: ACO4_(38-175) fused to the Gal4 activation domain (AD) of pGADT7 (domain or fragment, UniProt Q06588 38-175)
chain: T2 sequence
binding [4]: no binding | binding [1]: binds

Second part, the binder after the results:

binding [2]: binds | binding (ACO4-Flag (Arabidopsis)): binds | binding [3]: binds
B2: RPW8.1-HA (protein, UniProt Q9C5Z7 1-148)
chain: T1 sequence

binding [5]: binds
B6: ACO4_(38-175)-YC (domain or fragment, UniProt Q06588 38-175)
chain: T2 sequence

binding [6]: binds
B7: YN-ACO4_(38-175) (domain or fragment, UniProt Q06588 38-175)
chain: T2 sequence
